Laboratory results published in patent US10299477B2 (priority 2015, dated 2019).

Each molecule was assayed on Phytophthora infestans. Details: 250 ppm, sprayed 2.5 ml/pot before inoculation; evaluated 5-10 days after inoculation.
Type: in vivo
For `CCn1c(-c2c(F)cc(OC)cc2F)c(-c2ccccc2Cl)ccc1=O` [Compound 718], the “Test F (control value class, late blight on tomato)” value was “L (L shows 50% or less of control values)”.
For `COc1ccc(Cl)c(-c2ccc(=O)n(C#N)c2-c2c(F)cccc2F)c1` [Compound 719], the “Test F (control value class, late blight on tomato)” value was “L (L shows 50% or less of control values)”.
With `Cn1c(-c2c(F)cc(F)cc2F)c(-c2ccccc2Cl)cc(Br)c1=O` [Compound 720] the “Test F (control value class, late blight on tomato)” value was “L (L shows 50% or less of control values)”.
`COc1cc(F)c(-c2c(-c3cc(OC)ccc3Cl)ccc(=O)n2C)c(F)c1` [Compound 721] was tested, and the “Test F (control value class, late blight on tomato)” value was “L (L shows 50% or less of control values)”.
With `COc1cc(F)c(-c2c(-c3cc(OC)ccc3Cl)cc(Cl)c(=O)n2C)c(F)c1` [Compound 722] the “Test F (control value class, late blight on tomato)” value was “L (L shows 50% or less of control values)”.
`COc1cc(F)c(-c2c(-c3cc(OC)ccc3Cl)cc(Br)c(=O)n2C)c(F)c1` [Compound 723] was tested, and the “Test F (control value class, late blight on tomato)” value was “L (L shows 50% or less of control values)”.
For `COc1cc(F)c(-c2c(-c3cc(OC)ccc3Cl)cc(C)c(=O)n2C)c(F)c1` [Compound 724], the “Test F (control value class, late blight on tomato)” value was “L (L shows 50% or less of control values)”.
In the case of `COc1ccc(Cl)c(-c2cc(Br)c(=O)n(C)c2-c2c(F)cc(F)cc2F)c1` [Compound 725], the “Test F (control value class, late blight on tomato)” value was “L (L shows 50% or less of control values)”.

Same assay, conditions: Late blight on tomato; 250 ppm spray, 2.5 ml/pot; evaluated 5-10 days after inoculation
For `COc1ccc(-c2ccc(=O)n(C)c2-c2c(F)cc(F)cc2F)c(Cl)c1` [Compound 756], the “Test F (control value class)” value was “L (L shows 50% or less of control values)”.
For `Cn1c(-c2c(F)cc(F)cc2F)c(-c2cc(F)ccc2Cl)cc(Br)c1=O` [Compound 757], the “Test F (control value class)” value was “L (L shows 50% or less of control values)”.
With `Cc1cc(-c2cc(F)ccc2Cl)c(-c2c(F)cc(F)cc2F)n(C)c1=O` [Compound 758] the “Test F (control value class)” value was “H (H shows more than 50% of control values)”.
With `COc1cc(F)c(-c2c(-c3cc(F)ccc3Cl)cc(C)c(=O)n2C)c(F)c1` [Compound 759] the “Test F (control value class)” value was “L (L shows 50% or less of control values)”.
With `COc1cc(F)c(-c2c(-c3cc(F)ccc3Cl)ccc(=O)n2C)c(F)c1` [Compound 760] the “Test F (control value class)” value was “L (L shows 50% or less of control values)”.
For `COc1cc(F)c(-c2c(-c3cc(F)ccc3Cl)cc(Cl)c(=O)n2C)c(F)c1` [Compound 761], the “Test F (control value class)” value was “L (L shows 50% or less of control values)”.
`CCn1c(-c2c(F)cc(F)cc2F)c(-c2ccccc2)ccc1=O` [Compound 762] was tested, and the “Test F (control value class)” value was “H (H shows more than 50% of control values)”.
For `CCn1c(-c2c(F)cc(OC)cc2F)c(-c2ccccc2)ccc1=O` [Compound 763], the “Test F (control value class)” value was “H (H shows more than 50% of control values)”.
In the case of `COc1cc(F)c(-c2c(-c3ccc(OC)cc3Cl)ccc(=O)n2C)c(F)c1` [Compound 765], the “Test F (control value class)” value was “L (L shows 50% or less of control values)”.
For `COc1ccc(-c2cc(Cl)c(=O)n(C)c2-c2c(F)cc(F)cc2F)c(Cl)c1` [Compound 766], the “Test F (control value class)” value was “L (L shows 50% or less of control values)”.
With `COc1ccc(-c2cc(Br)c(=O)n(C)c2-c2c(F)cc(F)cc2F)c(Cl)c1` [Compound 767] the “Test F (control value class)” value was “L (L shows 50% or less of control values)”.
For `CCn1c(-c2c(F)cc(F)cc2F)c(-c2cc(OC)ccc2Cl)cc(Br)c1=O` [Compound 768], the “Test F (control value class)” value was “L (L shows 50% or less of control values)”.
For `CCn1c(-c2c(F)cc(F)cc2F)c(-c2cc(OC)ccc2Cl)cc(C)c1=O` [Compound 769], the “Test F (control value class)” value was “L (L shows 50% or less of control values)”.
In the case of `CCn1c(-c2c(F)cc(OC)cc2F)c(-c2cc(OC)ccc2Cl)ccc1=O` [Compound 770], the “Test F (control value class)” value was “L (L shows 50% or less of control values)”.
`CCn1c(-c2c(F)cc(OC)cc2F)c(-c2cc(OC)ccc2Cl)cc(C)c1=O` [Compound 771] was tested, and the “Test F (control value class)” value was “L (L shows 50% or less of control values)”.
With `CCn1c(-c2c(F)cc(OC)cc2F)c(-c2cc(OC)ccc2Cl)cc(Cl)c1=O` [Compound 772] the “Test F (control value class)” value was “H (H shows more than 50% of control values)”.
`CCn1c(-c2c(F)cc(OC)cc2F)c(-c2ccccc2)cc(Cl)c1=O` [Compound 773] was tested, and the “Test F (control value class)” value was “L (L shows 50% or less of control values)”.
In the case of `CCn1c(-c2c(F)cc(F)cc2F)c(-c2ccccc2)cc(Br)c1=O` [Compound 774], the “Test F (control value class)” value was “L (L shows 50% or less of control values)”.
For `CCn1c(-c2c(F)cc(OC)cc2F)c(-c2ccccc2)cc(Br)c1=O` [Compound 775], the “Test F (control value class)” value was “L (L shows 50% or less of control values)”.
For `COc1cc(F)c(-c2c(-c3ccc(OC)cc3Cl)cc(Cl)c(=O)n2C)c(F)c1` [Compound 776], the “Test F (control value class)” value was “L (L shows 50% or less of control values)”.
In the case of `Cn1c(-c2c(F)cc(F)cc2F)c(-c2ccccc2)ccc1=O` [Compound 777], the “Test F (control value class)” value was “L (L shows 50% or less of control values)”.
In the case of `COc1cc(F)c(-c2c(-c3ccccc3)ccc(=O)n2C)c(F)c1` [Compound 778], the “Test F (control value class)” value was “L (L shows 50% or less of control values)”.
For `Cn1c(-c2c(F)cc(F)cc2F)c(-c2ccccc2)cc(Cl)c1=O` [Compound 779], the “Test F (control value class)” value was “L (L shows 50% or less of control values)”.
With `Cn1c(-c2c(F)cc(F)cc2F)c(-c2ccccc2)cc(Br)c1=O` [Compound 780] the “Test F (control value class)” value was “L (L shows 50% or less of control values)”.
For `COc1cc(F)c(-c2c(-c3ccccc3)cc(Cl)c(=O)n2C)c(F)c1` [Compound 781], the “Test F (control value class)” value was “L (L shows 50% or less of control values)”.
`COc1cc(F)c(-c2c(-c3ccccc3)cc(Br)c(=O)n2C)c(F)c1` [Compound 782] was tested, and the “Test F (control value class)” value was “L (L shows 50% or less of control values)”.
For `CCn1c(-c2c(F)cccc2F)c(-c2cccc(OC)c2Cl)cc(Cl)c1=O` [Compound 783], the “Test F (control value class)” value was “L (L shows 50% or less of control values)”.
For `COc1cccc(-c2ccc(=O)n(C)c2-c2c(F)cccc2F)c1Cl` [Compound 784], the “Test F (control value class)” value was “L (L shows 50% or less of control values)”.
For `COc1cccc(-c2cc(Cl)c(=O)n(C)c2-c2c(F)cccc2F)c1Cl` [Compound 785], the “Test F (control value class)” value was “H (H shows more than 50% of control values)”.
For `COc1cccc(-c2cc(Br)c(=O)n(C)c2-c2c(F)cccc2F)c1Cl` [Compound 786], the “Test F (control value class)” value was “H (H shows more than 50% of control values)”.
For `COc1cccc(-c2cc(Cl)c(=O)n(C)c2-c2c(F)cc(F)cc2F)c1Cl` [Compound 787], the “Test F (control value class)” value was “L (L shows 50% or less of control values)”.
In the case of `COc1cc(F)c(-c2c(-c3cccc(OC)c3Cl)cc(Cl)c(=O)n2C)c(F)c1` [Compound 788], the “Test F (control value class)” value was “L (L shows 50% or less of control values)”.
With `CCn1c(-c2c(F)cc(F)cc2F)c(-c2cc(F)cc(F)c2)ccc1=O` [Compound 789] the “Test F (control value class)” value was “L (L shows 50% or less of control values)”.
`CCn1c(-c2c(F)cc(OC)cc2F)c(-c2cc(F)cc(F)c2)ccc1=O` [Compound 790] was tested, and the “Test F (control value class)” value was “L (L shows 50% or less of control values)”.
In the case of `CCn1c(-c2c(F)cc(F)cc2F)c(-c2cc(F)cc(F)c2)cc(Cl)c1=O` [Compound 791], the “Test F (control value class)” value was “L (L shows 50% or less of control values)”.
For `CCn1c(-c2c(F)cc(F)cc2F)c(-c2cc(O)ccc2Cl)cc(Cl)c1=O` [Compound 792], the “Test F (control value class)” value was “H (H shows more than 50% of control values)”.
For `CCOc1ccc(Cl)c(-c2cc(Cl)c(=O)n(CC)c2-c2c(F)cc(F)cc2F)c1` [Compound 793], the “Test F (control value class)” value was “L (L shows 50% or less of control values)”.
In the case of `CCn1c(-c2c(F)cc(F)cc2F)c(-c2cc(OCC#N)ccc2Cl)cc(Cl)c1=O` [Compound 794], the “Test F (control value class)” value was “L (L shows 50% or less of control values)”.
For `CCn1c(-c2c(F)cc(F)cc2F)c(-c2cc(OCOC)ccc2Cl)cc(Cl)c1=O` [Compound 795], the “Test F (control value class)” value was “L (L shows 50% or less of control values)”.
`CCOc1ccc(Cl)c(-c2cc(Cl)c(=O)n(CC)c2-c2c(F)cc(OC)cc2F)c1` [Compound 796] was tested, and the “Test F (control value class)” value was “L (L shows 50% or less of control values)”.
`CCn1c(-c2c(F)cc(F)cc2F)c(-c2cc(F)cc(F)c2)cc(Br)c1=O` [Compound 797] was tested, and the “Test F (control value class)” value was “L (L shows 50% or less of control values)”.
For `CCn1c(-c2c(F)cc(OC)cc2F)c(-c2cc(F)cc(F)c2)cc(Cl)c1=O` [Compound 798], the “Test F (control value class)” value was “L (L shows 50% or less of control values)”.
With `CCn1c(-c2c(F)cc(OC)cc2F)c(-c2cc(F)cc(F)c2)cc(Br)c1=O` [Compound 799] the “Test F (control value class)” value was “L (L shows 50% or less of control values)”.

Same assay, conditions: Late blight on tomato; 250 ppm sprayed before inoculation; 5-10 days after inoculation
`CN1C(=O)CCC(c2ccccc2)=C1c1ncc(Cl)cc1Cl` [Compound 1] was tested, and the “Test F control value” was “L (L shows 50% or less of control values)”.
In the case of `Cn1c(-c2ncc(Cl)cc2Cl)c(-c2ccccc2)ccc1=O` [Compound 2], the “Test F control value” was “L (L shows 50% or less of control values)”.
`CCn1c(-c2c(F)cccc2F)c(-c2cc(OC)cc(OC)c2Cl)ccc1=O` [Compound 32] was tested, and the “Test F control value” was “H (H shows more than 50% of control values)”.
In the case of `CCn1c(-c2c(F)cccc2F)c(-c2cc(OC)ccc2Cl)cc(Cl)c1=O` [Compound 54, 3-chloro-5-(2-chloro-5-methoxyphenyl)-6-(2,6-difluorophenyl)-1-ethylpyridine-2(1H)-one], the “Test F control value” was “L (L shows 50% or less of control values)”.

Each molecule was assayed on Magnaporthe grisea. Details: Blast on rice.
Type: in vivo
In the case of `CN1C(=O)CCC(c2ccccc2)=C1c1ncc(Cl)cc1Cl` [Compound 1], the “Test A control value” was “H (H shows more than 50% of control values)”.
`Cn1c(-c2ncc(Cl)cc2Cl)c(-c2ccccc2)ccc1=O` [Compound 2] was tested, and the “Test A control value” was “H (H shows more than 50% of control values)”.
For `CCn1c(-c2ncc(Cl)cc2Cl)c(-c2c(F)cccc2F)ccc1=O` [Compound 6], the “Test A control value” was “H (H shows more than 50% of control values)”.
`CCn1c(-c2c(F)cccc2F)c(-c2cc(OC)cc(OC)c2Br)ccc1=O` [Compound 16] was tested, and the “Test A control value” was “H (H shows more than 50% of control values)”.
With `CCn1c(-c2c(F)cccc2F)c(-c2cc(OC)cc(OC)c2Cl)ccc1=O` [Compound 32] the “Test A control value” was “H (H shows more than 50% of control values)”.
In the case of `CCn1c(-c2c(F)cccc2F)c(-c2cc(OC)ccc2Cl)cc(Cl)c1=O` [Compound 54, 3-chloro-5-(2-chloro-5-methoxyphenyl)-6-(2,6-difluorophenyl)-1-ethylpyridine-2(1H)-one], the “Test A control value” was “H (H shows more than 50% of control values)”.
